The supplement of paper PMC10369915
Some of the results follow. Cut-off read from the data, not from the text of the source: active = 3.2 or more and inactive = the rest. Only a few entries rise above the background.

Key:
Test in all cases: enrichment score (SH2-bound / input frequency) (ratio); bacterial display of known human phosphotyrosine sites (pTyr-Var adds point mutants) read by sequencing; higher = stronger binding; tyrosines were phosphorylated by kinases first
Conditions in all cases: peptide library: pTyr-Var
SHP2 C-SH2 domain E139D = molecular target: SHP2 C-SH2 domain E139D
[1] = molecular target: SHP2 C-SH2 domain wild-type
SHP2 N-SH2 domain L43F = molecular target: SHP2 N-SH2 domain L43F
SHP2 N-SH2 domain T42A = molecular target: SHP2 N-SH2 domain T42A
SHP2 N-SH2 domain T52S = molecular target: SHP2 N-SH2 domain T52S
[2] = molecular target: SHP2 N-SH2 domain wild-type

Measured: enrichment score
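Note: displayed peptides selected on beads carrying the immobilized SH2 domain, with library peptides lacking any tyrosine serving as negative controls.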

YMKEPYIQSRF [HIPK4_Y175_V171M]
inactive: SHP2 C-SH2 domain E139D 0.861 | [1] 0.903 | SHP2 N-SH2 domain L43F 0.862 | SHP2 N-SH2 domain T42A 0.624 | SHP2 N-SH2 domain T52S 0.655 | [2] 0.604

RGYRQYAYDGK [HLA-A_Y140_D140Y]
inactive: SHP2 C-SH2 domain E139D 0.272 | [1] 0.252 | SHP2 N-SH2 domain L43F 0.328 | SHP2 N-SH2 domain T42A 0.288 | SHP2 N-SH2 domain T52S 0.258 | [2] 0.4

RFLRGYEQDAY [HLA-A_Y137_R138E]
inactive: SHP2 C-SH2 domain E139D 0.911 | [1] 0.69 | SHP2 N-SH2 domain L43F 0.582 | SHP2 N-SH2 domain T42A 0.962 | SHP2 N-SH2 domain T52S 0.724 | [2] 0.995

SHGKQYRVPSD [HHIPL2_Y395_R394Q]
inactive: SHP2 C-SH2 domain E139D 0.574 | [1] 0.574 | SHP2 N-SH2 domain L43F 0.657 | SHP2 N-SH2 domain T42A 0.562 | SHP2 N-SH2 domain T52S 0.613 | [2] 0.635

FDGKDYIALKE [HLA-A_Y147_N151K_YF]
inactive: SHP2 C-SH2 domain E139D 0.594 | [1] 0.64 | SHP2 N-SH2 domain L43F 0.688 | SHP2 N-SH2 domain T42A 0.57 | SHP2 N-SH2 domain T52S 0.82 | [2] 0.531

FVKEPYIQSRF [HIPK4_Y175_YF]
inactive: SHP2 C-SH2 domain E139D 0.711 | [1] 0.681 | SHP2 N-SH2 domain L43F 0.687 | SHP2 N-SH2 domain T42A 0.477 | SHP2 N-SH2 domain T52S 0.797 | [2] 0.799

RFLRGYRQHAY [HLA-A_Y137_D140H]
inactive: SHP2 C-SH2 domain E139D 0.21 | [1] 0.158 | SHP2 N-SH2 domain L43F 0.194 | SHP2 N-SH2 domain T42A 0.259 | SHP2 N-SH2 domain T52S 0.301 | [2] 0.333

EWLRRYLENGK [HLA-A_Y195]
inactive: SHP2 C-SH2 domain E139D 0.585 | [1] 0.617 | SHP2 N-SH2 domain L43F 0.516 | SHP2 N-SH2 domain T42A 0.506 | SHP2 N-SH2 domain T52S 0.605 | [2] 0.733

CPFNLYAEQFS [HGD_Y40_L44F_YF]
inactive: SHP2 C-SH2 domain E139D 1.33 | [1] 1.7 | SHP2 N-SH2 domain L43F 1.29 | SHP2 N-SH2 domain T42A 1.01 | SHP2 N-SH2 domain T52S 1.16 | [2] 1.45

SDGKRYRVPSD [HHIPL2_Y395_H391D]
inactive: SHP2 C-SH2 domain E139D 0.595 | [1] 0.725 | SHP2 N-SH2 domain L43F 0.551 | SHP2 N-SH2 domain T42A 0.574 | SHP2 N-SH2 domain T52S 0.484 | [2] 0.848

SHGKRYRVPSD [HHIPL2_Y395]
inactive: SHP2 C-SH2 domain E139D 0.406 | [1] 0.375 | SHP2 N-SH2 domain L43F 0.476 | SHP2 N-SH2 domain T42A 0.409 | SHP2 N-SH2 domain T52S 0.543 | [2] 0.388

RLLRGYRQDAF [HLA-A_Y137_F133L_YF]
inactive: SHP2 C-SH2 domain E139D 0.196 | [1] 0.236 | SHP2 N-SH2 domain L43F 0.255 | SHP2 N-SH2 domain T42A 0.17 | SHP2 N-SH2 domain T52S 0.263 | [2] 0.235

RFLRGYRQYAY [HLA-A_Y137_D140Y]
inactive: SHP2 C-SH2 domain E139D 0.243 | [1] 0.162 | SHP2 N-SH2 domain L43F 0.179 | SHP2 N-SH2 domain T42A 0.111 | SHP2 N-SH2 domain T52S 0.168 | [2] 0.334

RGFRQDAFDGK [HLA-A_Y140_YF]
inactive: SHP2 C-SH2 domain E139D 0.313 | [1] 0.313 | SHP2 N-SH2 domain L43F 0.376 | SHP2 N-SH2 domain T42A 0.488 | SHP2 N-SH2 domain T52S 0.393 | [2] 0.377

CPYNLYAAQLS [HGD_Y40_E42A]
inactive: SHP2 C-SH2 domain E139D 1.27 | [1] 1.24 | SHP2 N-SH2 domain L43F 1.24 | SHP2 N-SH2 domain T42A 0.976 | SHP2 N-SH2 domain T52S 0.988 | [2] 1.12

GLNKGYRMVVN [HINT1_Y94]
inactive: SHP2 C-SH2 domain E139D 0.974 | [1] 0.645 | SHP2 N-SH2 domain L43F 0.676 | SHP2 N-SH2 domain T42A 0.522 | SHP2 N-SH2 domain T52S 0.67 | [2] 0.649

YDGKDYIALNE [HLA-A_Y147]
inactive: SHP2 C-SH2 domain E139D 0.846 | [1] 0.711 | SHP2 N-SH2 domain L43F 0.932 | SHP2 N-SH2 domain T42A 0.852 | SHP2 N-SH2 domain T52S 0.807 | [2] 0.713

RFLRGYHQDAF [HLA-A_Y137_R138H_YF]
inactive: SHP2 C-SH2 domain E139D 0.76 | [1] 0.779 | SHP2 N-SH2 domain L43F 0.607 | SHP2 N-SH2 domain T42A 0.612 | SHP2 N-SH2 domain T52S 0.811 | [2] 0.73

CPFNLYAAQLS [HGD_Y40_E42A_YF]
inactive: SHP2 C-SH2 domain E139D 0.955 | [1] 0.991 | SHP2 N-SH2 domain L43F 0.939 | SHP2 N-SH2 domain T42A 0.941 | SHP2 N-SH2 domain T52S 0.9 | [2] 1.1
